Source: PubChem BioAssay AID624417 (National Center for Advancing Translational Sciences (NCATS), 2012)
“And” between values parts separate entries of the source, which are not always exact repeats. Equal values may be shown once. Hit rate of the full screen: of about 410,000 compounds, about 6,400 (1.6%) were called active. This list was built around the results that the source calls inconclusive (neither active nor inactive); the mix of calls is not that of the screen. The call rests on the fitted dose curve; in most records, active means well fitted inhibition curve with a large enough effect; inconclusive means small, poorly fitted or top-dose-only effect; inactive means no such curve, though single readings can be large or run the other way. Where the call is inconclusive, the potency comes from a doubtful curve fit.

Target: Glucagon-like peptide 1 receptor (Homo sapiens) (UniProt P43220)
Assay: qHTS of GLP-1 Receptor Inverse Agonists (Inhibition Mode); further: nearly all actives have a fitted effect of over 55% in size
Conditions: HEK293 GLP-1R CRE-luciferase, luminescence, 24 h, GLP-1R form is constitutively active; series mostly up to 38.3 µM
In short: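 Constitutively active GLP-1R drives a cAMP-responsive luciferase in stably transfected HEK293 cells; test compounds are added after overnight (12 h) attachment and left 24 hr, and signal loss in luminescence marks inhibition.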
Potency means the concentration at half of the fitted maximal effect; tags describe the fitted curve by direction and shape.

Sequence of UniProt P43220 (P43220 whole entry, looked up): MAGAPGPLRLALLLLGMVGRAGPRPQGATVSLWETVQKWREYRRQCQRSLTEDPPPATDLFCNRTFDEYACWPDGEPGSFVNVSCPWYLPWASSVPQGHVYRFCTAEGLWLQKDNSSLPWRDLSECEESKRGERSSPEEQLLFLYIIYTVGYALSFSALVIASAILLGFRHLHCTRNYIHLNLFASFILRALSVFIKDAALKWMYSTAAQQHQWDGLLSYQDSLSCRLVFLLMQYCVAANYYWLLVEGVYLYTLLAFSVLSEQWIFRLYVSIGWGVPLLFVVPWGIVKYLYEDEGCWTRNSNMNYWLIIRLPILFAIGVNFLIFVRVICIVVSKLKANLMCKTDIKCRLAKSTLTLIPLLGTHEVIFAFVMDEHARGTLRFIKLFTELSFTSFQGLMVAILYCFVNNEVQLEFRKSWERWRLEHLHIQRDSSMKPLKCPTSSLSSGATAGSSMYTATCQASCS

SMILES | Potency
Cc1ccc2nc(N(CCN(C)C)C(=O)C3=COCCO3)sc2c1 | inactive
C=CCOc1ccccc1/C=N/NC(=O)Cc1ccc(C)cc1 | inconclusive: 28.2 µM [inhibitor, single point]
CCC1(c2ccc(F)cc2)NC(=O)N(CC(=O)N2CCN(S(=O)(=O)c3ccc(C)cc3C)CC2)C1=O (centres undefined) | inconclusive: 6.31 µM [inhibitor, partial curve]
Nc1cc(C(=O)OCC(=O)NNC(=O)c2ccccc2)ccc1Cl | inactive
CCC(CC)c1nnc(NC(=O)COc2ccc3c(c2)OCO3)s1 | inconclusive: 10 µM [inhibitor, partial curve, poor fit]
O=C(Oc1ccc[nH]c1=O)C1CC1 | inconclusive: 15.8 µM [inhibitor, single point]
Cc1ccc(-c2nnc(CSc3nnc(COc4cccc5ccccc45)n3-c3ccccc3)o2)cc1 | active: 11.2 µM
CCC(C)OC(=O)C1C(c2ccccc2)C(C(=O)O)C1c1ccccc1 (centres undefined) | inconclusive: 28.2 µM [inhibitor, single point]
Cc1ccc(Cl)cc1N1CCN(Cc2cc(=O)n3ccsc3n2)CC1 | inconclusive: 5.62 µM [inhibitor, partial curve, poor fit]
COc1ccc(CNc2cccc(F)c2)cc1Br | inconclusive: 10 µM [inhibitor, partial curve, poor fit]
COc1cc(OC)c2c(-c3ccccc3)cc(=O)oc2c1C(CCN1CCCC(C)C1)c1ccc2c(c1)OCO2 (centres undefined) | inconclusive: 11.2 µM [inhibitor, single point]
Cc1c(C(=O)NCc2cccc([N+](=O)[O-])c2)sc(=O)n1Cc1cccc(F)c1 | inconclusive: 10 µM [inhibitor, partial curve, poor fit]
O=C(/C=C/c1cccc([N+](=O)[O-])c1)NCCSCc1ccc(Cl)cc1Cl | inconclusive: 5.01 µM [inhibitor, partial curve]
CCOc1ccc(N2CC(C(=O)Nc3ncccc3C)CC2=O)cc1 (centres undefined) | inactive
CN(C)C(CNC(=O)C1CCN(S(=O)(=O)c2ccccc2C(F)(F)F)CC1)Cc1ccccc1 (centres undefined) | inconclusive: 22.4 µM [inhibitor, partial curve, poor fit]
CC(=O)c1cccc(OCC(=O)N2CCN(c3ccc(C(F)(F)F)cn3)CC2)c1 | inconclusive: 8.91 µM [inhibitor, partial curve, poor fit]
OCCOCCn1c(C2CCCN2c2nc(-c3ccc(F)cc3)cs2)nc2cc(Cl)c(Cl)cc21 (centres undefined) | inconclusive: 11.2 µM [inhibitor, partial curve, poor fit]
COc1ccc(C(C)=O)cc1CSc1nc2ccccc2o1 | inconclusive: 28.2 µM [inhibitor, single point]
COC(=O)c1ccccc1S(=O)(=O)N1CCC(C(=O)N(C)CCOc2ccccc2)CC1 | inconclusive: 28.2 µM [inhibitor, single point]
Cc1cc(Br)cn2c(Cc3ccccc3)c(C3CCCCC3)nc12 | inconclusive: 8.91 µM [inhibitor, partial curve, poor fit]
CCN(Cc1ccccc1)C(=O)CN1C(=O)COc2ccc(S(=O)(=O)NC3CCCC3)cc21 | inconclusive: 22.4 µM [inhibitor, single point] and inconclusive: 6.31 µM [inhibitor, partial curve]
O=c1cc(C(F)(F)F)[nH]c2c(OC(F)(F)F)cccc12 | inconclusive: 28.2 µM [inhibitor, single point]

SMILES | Potency
CCc1nn(CC(=O)Nc2ccc(Br)c(C)c2)c(=N)s1 | inconclusive: 10 µM [inhibitor, partial curve, poor fit]
O=C(Cc1nc2ccccc2[nH]1)c1ccc([N+](=O)[O-])cc1 | inactive
CN(C(=O)COC(=O)c1c[nH]c2ccccc12)c1ccccc1 | inconclusive: 28.2 µM [inhibitor, single point]
CCC(C)(C)NC(=O)C(c1ccc(F)cc1)N(Cc1ccccc1)C(=O)c1cnccn1 (centres undefined) | inconclusive: 11.2 µM [inhibitor, partial curve, poor fit]
CCOc1ccc2nc(NC(=O)CN3CCN(C)CC3)sc2c1 | inconclusive: 10 µM [inhibitor, partial curve]
Cc1ccc(/C=N/NC(=O)c2ccccn2)s1 | inconclusive: 11.2 µM [inhibitor, single point]
COc1ccc(NC(=O)Nc2cc(C)ccn2)cc1 | inconclusive: 7.08 µM [inhibitor, partial curve]
Cc1ccc2c(c1)N(CC(=O)NCCc1ccc(Cl)cc1)C(=O)c1cccnc1O2 | inconclusive: 2.51 µM [inhibitor, full curve]
O=C(Nc1cccc(-c2cn3cccnc3n2)c1)c1cc(Br)ccc1Cl | inactive
CCOC(=O)c1[nH]c(C)c(C(=O)NC(CC)Cc2ccccc2)c1C (centres undefined) | inactive
O=C(CN1C(=O)COc2ccc(S(=O)(=O)NC3CCCC3)cc21)Nc1ccc(Cl)cc1 | inconclusive: 28.2 µM [inhibitor, single point]
CC1CCCC(NC(=O)Cn2cc3c(n2)CCCCC3)C1C (centres undefined) | inconclusive: 10 µM [inhibitor, partial curve, poor fit]
COC(=O)CCC(=O)OC1(C)C(=O)C=C2C=C(C3CC3)N(CCCOC(C)C)C=C2C1=O (centres undefined) | inactive
CCOc1ccc(-c2cc(C(=O)NCCOC)[nH]n2)c(C)c1 | inactive
CCOc1ccc(NC(=O)c2cc3ccccc3cc2OC)cc1 | inconclusive: 5.01 µM [inhibitor, full curve, poor fit]
O=C(ONC(=O)C1C2C=CC(C2)C1C(=O)NOC(=O)c1ccccc1)c1ccccc1 (centres undefined) | inactive
Cc1cc(C)c(C)c(S(=O)(=O)Nc2ccccc2C(=O)O)c1C | inconclusive: 1.58 µM [inhibitor, partial curve, poor fit]
CC(NC(=O)Cc1ccc(NC(=O)N2CCSc3ncccc32)cc1)c1ccccc1 (centres undefined) | inactive
Cc1ccc(NC(=S)N(Cc2ccco2)C(C)c2cccs2)c(Cl)c1 (centres undefined) | inconclusive: 1.58 µM [inhibitor, full curve, poor fit]
O=S(=O)(c1cccs1)N1CCN(c2ccnc3cc(Cl)ccc23)CC1 | inactive
CCOC(=O)N1CCC(N2CCCC(C(=O)c3cccc(OC(C)C)c3)C2)CC1 (centres undefined) | inconclusive: 14.1 µM [inhibitor, single point]
COC(=O)C1=C(C)NC(C)=C(C(=O)OC)C1C1CC=CCC1 (centres undefined) | inconclusive: 31.6 µM [inhibitor, partial curve, poor fit]

SMILES | Potency
CCCN(CCC)S(=O)(=O)c1ccc(NC(=O)C2CCCO2)cc1 (centres undefined) | inconclusive: 7.94 µM [inhibitor, partial curve, poor fit]
CCOC(=O)C1(CCOC)CCN(Cc2cc3ccccc3s2)CC1 | inconclusive: 28.2 µM [inhibitor, single point]
Cc1ccc(CNC(=O)C2CCCN(C(=O)Nc3ccc(F)cc3)C2)cc1 (centres undefined) | inactive
C=C(C)COc1ccc2c(C)c(C)c(=O)oc2c1OCC(=C)C | inconclusive: 10 µM [inhibitor, partial curve, poor fit]
Cc1cnc(NC(=O)C2(c3ccccc3)CC2)s1 | inconclusive: 4.47 µM [inhibitor, partial curve, poor fit]
CSCc1cc(N2CCOCC2)nc(SCc2ccc(Cl)c(Cl)c2)n1 | inconclusive: 28.2 µM [inhibitor, single point]
C(=N\Nc1ccccn1)/c1c[nH]c2ccccc12 | inconclusive: 8.91 µM [inhibitor, partial curve]
COc1ccc(OCCSc2ncccn2)cc1 | inactive
COc1ccc(F)cc1S(=O)(=O)NCC(c1ccco1)N1CCc2ccccc2C1 (centres undefined) | inconclusive: 22.4 µM [inhibitor, single point]
Cc1c(C(=O)Nc2cccc(Cl)c2)oc2ccc(S(=O)(=O)N3CCCCCC3)cc12 | inconclusive: 12.6 µM [inhibitor, single point]
COc1ccccc1C(CC(=O)Nc1ccc(C)c(C)c1)c1ccc(OC(C)C)cc1 (centres undefined) | inconclusive: 2 µM [inhibitor, partial curve, poor fit]
Cc1cccc(OCCC(=O)Nc2ccc(S(=O)(=O)N3CCCC3)cc2)c1 | inconclusive: 8.91 µM [inhibitor, partial curve, poor fit]
O=S(=O)(c1ccc(Cl)cc1)c1nc(-c2ccccc2F)oc1NCCN1CCOCC1 | inconclusive: 10 µM [inhibitor, single point]
CCOc1ccc(CN2CCN(Cc3cc4ccccc4[nH]3)CC2CCO)cc1 (centres undefined) | inconclusive: 14.1 µM [inhibitor, partial curve, poor fit]
O=C(NCc1ccccc1)C(=O)Nc1ccc2nc3n(c(=O)c2c1)CCCCC3 | inactive
CC(=O)Nc1ccc(Nc2nc(C)c([N+](=O)[O-])c(Nc3ccccc3)n2)cc1 | inactive
Cc1nnc(NC(=O)c2nc(SCc3ccccc3F)ncc2Cl)s1 | inactive
Cc1ccc(-n2nc3c(N4CCC(C(=O)N5CCCCCC5)CC4)nnc(C)c3c2C)cc1 | inconclusive: 11.2 µM [inhibitor, partial curve, poor fit]
COc1ccc(C2c3[nH]c4ccccc4c3CCN2C(=O)c2ccccc2C(C)=O)c(F)c1 (centres undefined) | inconclusive: 15.8 µM [inhibitor, single point]
COc1ccccc1C(=O)NC1CCCc2ccccc21 (centres undefined) | inconclusive: 7.94 µM [inhibitor, partial curve, poor fit]
